According to PubChem BioAssay AID1508624 (National Center for Advancing Translational Sciences (NCATS), 2021):
The whole screen tested about 48,000 compounds, of which about 120 (0.25%) were called active. Another 4% or so got no clear call; they are omitted. Calls come from the whole dose curve; as a rule, active = well fitted activation curve with a large enough effect; inconclusive = small, poorly fitted or top-dose-only effect, or another doubt; inactive = no such curve, though single readings can be large or run the other way. Some of the results follow.

Assay: Primary qHTS for Identification of Small Molecule Activators of Huntingtin-Antisense Promoter Activity; note: nearly all actives have a fitted effect of over 55% in size
Conditions: HEK293 HTT-AS promoter firefly luciferase reporter, 24 h; series mostly up to 57.5 µM; activity change, positive = activation: at the top concentration
Procedure, shortened: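 HEK293 Fluc reporter, 2,500 cells/well, 24 h pre-culture; cpds up to 57.5 uM final, 24 h 37 degrees C; Dual-Glo, 10 min RT; normalized vehicle = 0%, zero RLU = -100%.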

Activity change, positive = activation, inactive:
CCOc1ccc(CCNC(=O)c2ccc(-c3nc(COc4ccc(C)cc4)c(C)o3)cc2)cc1 -17.3%, COc1ccc(NC(=O)CSc2nc(-c3ccc(F)cc3)c3cccc(C)c3n2)cc1 -9.85%, COc1ccc(CCNC(=O)c2ccc(Cn3c(=O)c4ccccc4n(Cc4ccc(C)cc4)c3=O)cc2)cc1OC -6.02%, Cc1ccc2nc(CN3CCN(C(=O)Nc4ccc(C)c(F)c4)CC3)oc2c1 15.1%, COCCCn1c(SCC(=O)Nc2ccccc2OC)nc2c(sc3ccccc32)c1=O -2.06%, CCC1=Nc2cc(C(=O)NCc3ccc(C)cc3)ccc2Sc2ccc(C)cc21 -34.5%, CCCCN(C)CCCNC(=O)c1cc(-c2cccnc2)nc2ccccc12 -2.65%, COc1ccc(-c2oc3ncn4nc(COc5ccccc5C)nc4c3c2-c2ccc(OC)cc2)cc1 6.69% [at 11.5 µM, percent change from vehicle, -100% = no light], COC(=O)c1ccc(OC)c(Cn2c(=O)n(-c3cccc(Cl)c3)c(=O)c3c4c(sc32)CN(C(C)=O)CC4)c1 -4.19%, CCOC(=O)C1CCCN(C(=O)Cn2ncn3c(cc4sc(CC)cc43)c2=O)C1 (stereo not drawn) -16.1%, O=C(Nc1ccc(F)cc1)[C@@H](c1ccccc1)N1Cc2ccccc2C1=O -14.1%, COc1cc(OC)c(NC(=O)Cc2ccc(-n3c(C)nc4cccnc43)cc2)cc1Cl -33.9%, COc1ccc(NC(=O)Cn2c(=O)n(-c3ccc(OC)cc3)c(=O)c3ccc(C(=O)NCc4ccc(C)cc4)cc32)cc1 -41.8%, COc1cc(C(=O)NCCc2csc3nc(-c4ccccc4C)nn23)cc(OC)c1OC -25.4%, Cc1cc(OCC(=O)N(Cc2ccc(N(C)C)cc2)C2CCS(=O)(=O)C2)cc(C)c1Cl (stereo not drawn) -38.2%, CC(C)c1ccc(NC(=O)CC2Oc3ccccc3NC2=O)cc1 (stereo not drawn) -24.2%, O=C(OC1C[C@H]2CC[C@@H](C1)[N+]21CCCC1)C(O)(c1ccccc1)c1ccccc1 (stereo partly drawn) -10.4%, COc1ccccc1CCNC(=O)CCc1c(C)c2cc3c(C)c(C)oc3cc2oc1=O -5.04%, Cc1ccc(Cl)cc1NC(=O)CN1C(=O)COc2ccc(S(=O)(=O)N3CCCCCC3)cc21 -22%, Cc1ccc(NC(=O)C(=O)NCC(c2ccc3c(c2)OCO3)N2CCN(c3ccccc3)CC2)cc1 (stereo not drawn) -5%, O=C(c1cccs1)c1cn(CCOc2ccccc2Cl)c2ccccc12 -24.7%, CCN(C(=O)C(Cc1ccccc1)NS(=O)(=O)c1cccc2nsnc12)c1ccccc1 (stereo not drawn) -10.2%, CCN(CC)CC1CCCCN1CC(=O)N1c2ccccc2C(=O)Nc2cccnc21 (stereo not drawn) -1.99%, COc1ccc(CC(=O)NCC(c2cccs2)S(=O)(=O)c2ccc(Cl)cc2)cc1 (stereo not drawn) -17.3%, Cc1c(C(=O)N2CCCC2)oc2c1-c1nn(CC(=O)NC(C)c3ccccc3)cc1CC2 (stereo not drawn) -37.8%, CCC(C(=O)Nc1cc(OC)ccc1OC)n1c(C)c2cnn(-c3ccccc3)c(=O)c2c1C (stereo not drawn) -22.9%, Cc1cc(F)ccc1NC(=O)c1ccc2nc(Cc3ccccc3)oc2c1 -15.8%, COc1ccc(-n2ccn(CC(=O)NCc3ccc(C)cc3)c(=O)c2=O)cc1OC -6.08%, Cc1ccc(S(=O)(=O)NCCc2nnc3ccc(SCc4ccc(F)cc4)nn23)cc1 -33.5%, Cc1ccc2oc(C(=O)Nc3cccc(-c4nc5ccccc5s4)c3)c(C)c2c1 22.2%, Cc1ccc(Nc2ncc(C(=O)N3CCN(c4cccc(Cl)c4)CC3)c3ccccc23)cc1Cl -18.2%, COc1ccccc1Cn1cc(C(=O)c2ccc(F)cc2)c(=O)c2cc3c(cc21)OCO3 -3.85%, COc1ccccc1C(=O)c1cn(CC(=O)Nc2ccccc2F)c2nc(C)ccc2c1=O -9.88%, Cc1ccc(C)c(N2CCN(C(=O)c3cc(S(=O)(=O)N4CCC(C)CC4)cn3C)CC2)c1 -39.2%, COc1ccc(-c2noc(N3CCC(C(=O)N(C)c4cc(Cl)ccc4OC)CC3)n2)cc1 -70.8%, COc1ccc(CCNC(=O)CCc2cn(Cc3ccc(C)cc3)c3ccccc23)c(OC)c1OC -31.9%, CCOc1cc2[nH]c(=O)n(CCCCC(=O)N3CCN(c4ccccc4)CC3)c(=O)c2cc1OCC -14%, CCC(C)NC(=O)c1[nH]c2cc(C)ccc2c1Sc1ccc(Cl)cc1 (stereo not drawn) 0.858%, Cc1cccc(C)c1OCC(=O)Nc1c(C(=O)c2ccc(Br)cc2)oc2ccccc12 1.17%, O=C(CN1C(=O)COc2ccc(S(=O)(=O)N3CCCCCC3)cc21)N1CCN(c2cccc(C(F)(F)F)c2)CC1 -43.5%, COc1ccc2c(CNCCc3cccs3)c(C(=O)O)n(Cc3ccccc3C)c2c1 -30.7%, Cc1cccc(N2CCN(C(=O)C3CCN(S(=O)(=O)c4c(C)noc4C)CC3)CC2)c1C -38.3%, COc1ccc2oc(=O)c(-c3cn4c(n3)sc3cc(F)ccc34)cc2c1 -0.684%, NC(=O)Nc1sc(-c2ccc(F)cc2)cc1C(N)=O 21.7%, CCCn1c2ccccc2c2cnn(CC(=O)N(Cc3ccccc3)C(C)C)c(=O)c21 -22.5%, CCCCOc1ccc(S(=O)(=O)NCc2csc(-c3ccc(OC)cc3)n2)cc1 -27.5%, COc1ccc(NC(=O)Cn2c(=O)n(-c3ccc(C)cc3)c(=O)c3c2cnn3C)cc1 -7.81%, O=C(Nc1ccc2nc(SCC(=O)N3CCCC3)sc2c1)c1cccc(Cl)c1 -17.1%, CCN1CCCC1=O 0.0772%, CC(C)CCNC(=O)C1CCN(c2nc3ccc(Cl)cc3[nH]2)CC1 -24.3%, COc1ccc(C)cc1NC(=O)c1ccc(=O)n(Cc2ccccc2)c1 -13.7%, CCOC(=O)c1cc2c(=O)n3ccccc3nc2n(Cc2ccco2)c1=NC(=O)c1c(F)cccc1Cl -12.2%, CCOC(=O)c1c(C)[nH]c(C)c1S(=O)(=O)N(C)CC(=O)Nc1ccc(C)c(N(C)C)c1 -7.19%, COC(=O)c1cc2occc2n1Cc1nc(-c2cccc(Cl)c2)oc1C 18.2%, CC(C)(C)c1ccc(C(=O)NC2(C(F)(F)F)C(=O)Nc3c2c(=O)[nH]c(=O)n3-c2ccccc2)cc1 (stereo not drawn) -10.3%, Cc1cccn2c(=O)c3cc(C(=O)NCc4cccnc4)c(=N)n(CCCO)c3nc12 -27.2%, COC(=O)c1c(C)oc2ccc(N(C(=O)c3ccncc3)S(=O)(=O)c3c(C)cc(C)cc3C)cc12 -37.9%, CN1CCc2nc3sc(C(=O)Nc4ccccc4OC(F)(F)F)c(N)c3cc2C1 -14.5%, O=C(NCc1ccccc1)c1nc(S(=O)(=O)Cc2ccccc2)ncc1Cl -87%, Cc1sc2ncn(CC(=O)N3CCN(c4ccc(Cl)cc4)CC3)c(=O)c2c1S(=O)(=O)N1CCN(c2ncccn2)CC1 -11.9%, Cc1ccc(Cn2c(SCC(=O)C(C)(C)C)nc3ccsc3c2=O)cc1 -26.6%, CCCN(CCC)CCNC(=O)c1ccc2c(c1)NC(=O)C(CS(=O)(=O)Cc1cccc(Br)c1)N2 (stereo not drawn) -9.35%, COc1ccccc1N1CCN(S(=O)(=O)CCNC(=O)COc2ccc(C(C)C)cc2)CC1 -9.84%, Cc1sc2ncn(CC(=O)N3CCN(c4cccc(Cl)c4)CC3)c(=O)c2c1S(=O)(=O)N1CCN(c2ncccn2)CC1 -17.6%, COc1ccc(NC(=O)c2ccc3c(SCC(=O)O)c4c(nc3c2)CCC4)c(OC)c1 3.99%, CCOc1ccccc1N1CC(c2nc3ccccc3n2Cc2c(C)cc(C)cc2C)CC1=O (stereo not drawn) 11.3%, COc1ccc(-c2nc(C)c(CCNC(=O)C(=O)Nc3cc(C)cc(C)c3)s2)cc1OC 4.09%, N[C@@H](CC(=O)N1CCn2c(nnc2C(F)(F)F)C1)Cc1cc(F)c(F)cc1F -2.69%, COc1ccc(-c2nc(SCc3cc(=O)c4cc(C)ccc4[nH]3)n[nH]2)cc1 -31.6%, CCOCCCNC(=O)C(c1ccc(OC)cc1)N(Cc1ccc2c(c1)OCO2)C(=O)c1ccccc1O (stereo not drawn) -11.1%, Cc1ccccc1C(=O)Nc1c(C)nc(Nc2ccccc2)nc1Nc1ccccc1 -39.9%, CC(=O)N1c2ccc(S(=O)(=O)NCC3CCC(C(=O)Nc4cccc(C)c4C)CC3)cc2CC1C (stereo not drawn) -25.5%, Cc1ccc(NC(=O)Cn2nc(C)n3cccc3c2=O)c(C)c1 -10.6%, Cc1cccc(N2CCN(C(=O)c3cc4c(=O)n(C)c5ccccc5c4s3)CC2C)c1 (stereo not drawn) -8.08%, COc1ccc(NC(=O)c2c(C)oc3ccc(O)c(CN4CCCCCC4)c23)cc1Cl -30.8%, COc1ccc(/C=C/c2nc(C#N)c(NCCc3ccccc3)o2)cc1OC -16.6%, COc1ccc(Nc2nc3c(S(=O)(=O)c4ccccc4)nnn3c3ccsc23)cc1OC -18.9%, Cc1cccc(C(=O)Nc2c(C(=O)NCc3ccc(Cl)cc3)sc3nc(C)cc(C)c23)c1 -50.3%, COc1ccc(OC)c(CCNC(=O)c2cnn(-c3ccccc3Cl)c2C2CCN(C(=O)OC(C)(C)C)CC2)c1 -26.9%, COc1ccc(CCNC(=O)c2cn(C)c3ccc(S(=O)(=O)N(C)C4CCCCC4)cc3c2=O)cc1OC -1.67% [at 11.5 µM, percent change from vehicle, -100% = no light], COc1cccc(-n2c(=O)c3c(C)c(C)sc3n(CC(=O)NCc3ccccc3)c2=O)c1 5.53%, COc1ccc(-c2nsc(NC(=O)C(C)Oc3ccc(Cl)c(C)c3)n2)cc1 (stereo not drawn) -7.46%, Cc1ccc(C)c(Cn2c(=O)cc(C)c3c(C)nn(-c4cccc(F)c4)c32)c1 -10.7%, COc1ccc(NC(=O)c2cnc(Nc3ccc(C)c(Cl)c3)c3ccccc23)cc1OC -5.05%, O=c1[nH]c(=O)n(C2CCCCC2)c(O)c1C1=Nc2ccccc2SC(c2ccc(Cl)cc2)C1 (stereo not drawn) -18.3%, COc1ccc2cc3cc(C(=O)N4CCN(c5ccccc5F)CC4)oc3nc2c1 -4.32%, CCCOc1ccc(C2CC(=O)Nc3c2c(C)nn3-c2nncc(-c3cccc(OC)c3)n2)cc1OC (stereo not drawn) -9.49%, COc1cccc(C2=CC(c3cc(Br)ccc3F)n3nnnc3N2)c1 (stereo not drawn) -43.5%
